# Experimental data reported in the supplement of paper PMC11417369.
# The other results are listed elsewhere or left out.
# Test system: PF3D7_0420300 AP2 domain 1 (GST-tagged)
# Assay: gcPBM binding intensity (ln(normalized median fluorescence intensity)); higher = stronger DNA binding
# In short: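 GST-tagged P. falciparum DNA-binding domains, expressed in E. coli (about 25 μg on average), were applied for 1 h to an Agilent 4 × 180k array of primer-extended double-stranded 36-bp intergenic genomic probes plus negative controls. The binding buffer was 1× PBS with 1% milk, 0.2 mg/ml BSA, 0.5% salmon testes DNA and 0.03% Triton X-100. Bound protein was detected with Alexa488 anti-GST antibody and scanned at 488 nm. Binding intensity is the highest Masliner-normalised natural-log median intensity across replicate spots of either probe orientation.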
row,Sequence,gcPBM binding intensity (ln)
1,TATTTTTTAAAAAAACGTACAAACATAATAAAAATA [XGTACX_site1857],9.25
2,ATATGAAACATGAAGGTGCATAATGTGTATATTTAT,9.46
3,ACATAAATATATTTTTCACACATCATTAGTTATGAA [CACACA_site4724],9.28
4,TATATATATATATATGTGCACATTTTATTAAAATGT,9.19
5,ATAGACATTTTACTTTGTACATATAAACATATATAT [XGTACX_site2733],9.25
6,AAACTATACCAAAACACACATACAAAATATAAAAAA [CACACA_site2707],9.81
7,ATTTTCAAATTATCAGATGAATCTTTTTAAGATCTT [XGTACX_negctrl_site598],8.68
8,CTCATATATAACACATGTACACAGATTTTGCAAATG [XGTACX_site6879],9.32
9,GGGAAAAAATGAGGTCGTACATTTTTCATCACAAAT [XGTACX_site8920],9.2
10,TTTTTTTTTTTTTTTTTACACACTGCATACAAGAAA [CACACA_site3026],8.95
11,GTCTGCATATGGATACGTACACATATATATTAATGT [XGTACX_site2260],9.48
12,AATGAATGTACATACGCATGTACTTGACTAAATTAT [TGCATGCA_site436],9.23
13,TATATAATACGAATTTGTACATATTAAATAAATTAT [XGTACX_site93],9.11
14,GTTAGTTTTAGTTCATGTACATAATAGAAAATATAT [XGTACX_site7125],9.2
15,AAGGTATGATTAATCACACACATAAATATAAATACA [CACACA_site5464],9.56
16,AAGCTTCATTAATATACACACATATATGTGTATATT [CACACA_site7693],9.55
17,AATAAAGAAGAAGAAAGTACACATTTCACAAAGGGG [XGTACX_site1308],9.54
18,GATATATGTATAATAACGCACACTACAAAAATAAAA [CACACA_site2100],9.55
19,ATAAAATATAGGTATGCACACACATATACTTCTGTG [CACACA_site8398],9.66
20,ATATATATATATATATGTACATATTTTTTATTTTAT [XGTACX_site5761],9.19
21,TATTATTCAAATAAAAGAAAAATATATATATTATAT [GTGCAC_negctrl_site273],8.98
22,ATATGTTACTTTACATAAAGAAGAAGAAGAAGAAAA [CACACA_negctrl_site985],9.07
23,TTTCAAAAAGGAAGAAAAAAAAAAAAAAAAAATATA [XGTACX_negctrl_site514],9.01

row,Sequence,gcPBM binding intensity (ln)
1,TCCCCCTTTTTTTGATTTTTATCTTAATTCTAAAAG [GTGCAC_negctrl_site541],9.24
2,AAAAAAAAAAAAAACACACACACACCCAAATACATA [CACACA_site708],9.87
3,TTTTTTCTTTTCAAGGTGCTTTATAAGAAAAAGGGA [GTGCAC_site9858],8.59
4,TATATTAAAACAAGCACACAATCGCATAATATCCTT [CACACA_site3210],9.65
5,TATTTTATCATTTGCACACGCACACCCACATAAAAA [CACACA_site354],9.56
6,AGTATTATATTTTCTTGTACACATGTAAAATACCTC [XGTACX_site1359],9.32
7,AAAAAAAAAAAAAAAACACACATATATGTATATATA [CACACA_site3276],9.3
8,ATGTTATATTTTTTTATACACACTGGAATATATAAA [CACACA_site215],9.37
9,TATATATATATATATTGTACTTTATTTTATATATTC [XGTACX_site5697],9.26
10,ATTTATAATGAGTATACACACATATATAGATTTGCT [CACACA_site4517],9.49
11,ATTATTATTGTCAAATGTACAAGCTAATAATTTTTA [XGTACX_site7167],8.91
12,CAACAACATTTTTCATGTACATATATTTTATAATAT [XGTACX_site519],9.26
13,AAAAAAAAAAAAAACATACACACAAGAACAAAATAT [CACACA_site3003],10.2
14,TTTTTTTTTTGTAATACACACCACTATATGTTATTT [CACACA_site5087],9.68
15,AAACATTTAAATGGAAACACAGAAAAATGAAAAATG [CACACA_negctrl_site457],9.59
16,ATATATATATATACATGTACATATATACATTATATT [XGTACX_site936],9.19
17,ATATATTTTCATTTTACACACAAATAAAGATAATTT [CACACA_site2996],9.4
18,AAAATAAATAAAAAAAGTACATATATAATTTATAAA [XGTACX_site2411],9.32
19,TCTTGATACAAACATTTAAATAAATAAATAAAAAAA [GTGCAC_negctrl_site41],8.96
20,TGTTGTGATATATTAAAATCGTCCCTTATAATTTTA [GTGCAC_negctrl_site595],9.26
21,TAATATTATATTTATAGTACATATAATATATATATA [XGTACX_site2964],8.93
22,AAAATACACGCATACACACACACACCGACACATATA [CACACA_site4523],10.2
23,AAACACACACACAAATGTACATATATATATATATTT [XGTACX_site5090],9.74

row,Sequence,gcPBM binding intensity (ln)
1,GAACACTAATAATGTTGTACACGTAATTATATATTT [XGTACX_site777],9.35
2,TTTTCTTAATATTTCGTTTTACATAAACCTTTTAAA [CACACA_negctrl_site660],9.12
3,AATATAATATTATATAGTACATATTTCTTTTATTTT [XGTACX_site22],9.27
4,TATATATATATAAGTAGTACAATAATATATTATTTT [XGTACX_site6450],9.3
5,TTTTACATCATATATAGTACATATATTATACATATA [XGTACX_site8590],9.28
6,TATATATATATAATTGCACACATCAAGTTTGATGTT [CACACA_site1288],9.29
7,AAATGTACAGGACGCACACACATATTTATATTTATA [CACACA_site7689],9.67
8,GTTGTATACAATAATGTGCACATATTAATTTGAACT,9.36
9,TTTTTTTTTCCTTTTTTTTAAATATTAAAAATGGGA [TGCATGCA_negctrl_site494],8.69
10,TAAGTTTTGTTTTTTTGTACTCATTCATACTATCAT [XGTACX_site3638],9.44
11,CTTATTTACTATTTTTCACACATTACAGATAAACAA [CACACA_site6095],9.25
12,TAAATATATATATATAGTACAATATAATTATGATAT [XGTACX_site258],9.29
13,TCATTGAAAAAAATCTGTACTGACTATATAGTTGCA [XGTACX_site1566],8.92
14,TATAATATATGTATATGTACTTATGTTGAGAAACAT [XGTACX_site2117],9.19
15,TACCTAATATGTTATACACACATTATGAGTACATAT [CACACA_site2466],9.57
16,GAATAATATATATGTTCACACATGGTCTTTATTATA [CACACA_site5457],9.45
17,GTTATATAAACATATGCATGTGAAGTGTTTATTAAT [TGCATGCA_site183],9.22
18,TATGAGAAAAAAAGTACATGCACAAAATGTATATGT [TGCATGCA_site789],9.38
19,ATTATATAAACCAAATGTACAAAAAGGTCGTAGTGG [XGTACX_site1298],9.77
20,CAACATTGTTCCTATTGTACATGAACTGTTCATACG [XGTACX_site4070],9.11
21,ATTATTAAGGTTTATTCAAAAAAGACGTTTTTAAAT [CACACA_negctrl_site1059],8.95
22,AGACACGTATACGATGCACACGTATGCTTTATATAT [CACACA_site9363],9.45
23,TTTTTTTTTTTTTTTGCACACTTAAATTTGGTGGCT [CACACA_site5319],8.98

row,Sequence,gcPBM binding intensity (ln)
1,GCTTAATACAGAATAACACACAAAATAAATAAATAA [CACACA_site4041],9.56
2,TATATTTGTGCGTGTACACATTTGAAAAAATATATA [CACACA_site5079],9.13
3,TCTTGATTAACTTAAAAAAAAAAAAAAAAAAAAAAA [CACACA_negctrl_site458],8.53
4,GACATATATACCAAACGTACATATGTGCAAGCATAA [XGTACX_site3089],9.17
5,TTGGCTATAGCCAATTGTACTTTTTCTCTTTGGCTT [XGTACX_site1119],9.08
6,CATATAATAAATAATTGTACTTGATATAATATTATG [XGTACX_site3562],9.12
7,ATAAATTATAATAACTGTACAAAAATAATATATTCA [XGTACX_site1856],9.25
8,TATATAATTATTTTTTGTACTCATAATAATATGAAA [XGTACX_site289],8.82
9,AATAATAATAAAAAGGTGCTGAAATATTTTTATTAT [GTGCAC_site9763],9.38
10,ATATGTACAAAATAAGCACACACAAAAAAAAAAAAA [CACACA_site8984],9.69
11,AAAAAAAAAAAAAATATATATATATATATATATATA [CACACA_negctrl_site540],9.31
12,TTTTTTTTTTTTTTTTGTACATAAATTTTTATTAGA [XGTACX_site6409],8.77
13,AATAATAATGCTTTAACTTTGTTGTTATTTAGAATA [CACACA_negctrl_site1144],9.02
14,TATAAATAAAAGTGTACACACATTAAAATCAAACGT [CACACA_site5316],9.85
15,TTTGTATTACGTTTGTGTACATATACAATGTGTTTT [XGTACX_site7708],9.3
16,CATACATATATACATACACACACATATAACCAATGT [CACACA_site8679],9.98
17,TTTATTTATTTATGGACACACATACAAATCTTCCAG [CACACA_site4676],9.23
18,TCCATGCATTGACACACACACAAAAAAAAATTCTTT [CACACA_site7847],9.57
19,ATAAAAATATTTATTACACACATAAGCAAAAAAAAA [CACACA_site3484],9.68
20,TATAATGATGATGATAGTACGTATGAGTAAGAAAAA [XGTACX_site31],9.44
